Test results from the RNAGym collection of RNA variant scans (doi:10.7554/elife.90254).
The source gives no read counts; variants with many changes may rest on few reads.

B1: LINE1-mini (parent)
chain: GGCAGAGCUCAACACAGCGUGGCAAAGUGGCUGUGGCUAGACUGCC

Variants of: B1
Assay: self-cleavage, relative activity (ratio to wild type); higher = more cleavage; in vitro, sequencing; the parent is a self-cleaving ribozyme

Variant	self-cleavage
G19U G36U U38A	0.02
G19U G40U G44U	0.05
G19U U20A G35U	0.1
G19U U20A U34G G40U	0.05
G19U U20C A41U C45G	0.04
G19U U20C C23A	0.12
G19U U20C C31U	0.66
G19U U20G C23A G29U G36C	0.16
G19U U28A G36A A39G	0.01
G19U U28G G30A	1.28
G19U U32A G35C A41U C42U	0.01
G19U U32A U34A A39U	0.07
G19U U32C C46A	0.21
G19U U32C G33U	0.03
G19U U32G G36A	0.05
G19U U34A C37U	0.06
G19U U34C G40C	0.05
U20A A24G A25C U34G	0.13
U20A A24U C31A	0
U20A A24U G27C A41U	0.15
U20A A25G A26C C31G U38A	0.02
U20A A25G G29A	1.22
U20A A25U C31A	0.05
U20A A26G U43C	0.01

Variant	self-cleavage
U20A A26U G27C C37A U38C	0.01
U20A A39U C42A	0.1
U20A A39U G40U C46A	0.05
U20A C23A G36U	0.02
U20A C23G G44C	0.01
U20A C23U A24G C46A	0.45
U20A C23U C46A	0.92
U20A C31A U32C U38C	0.03
U20A C31A U34G G44C	0.02
U20A C31U G40U	0.01
U20A C37A G40U C42A	0.03
U20A C37U A41C	0.02
U20A G21A G35A G36A	0.09
U20A G21U A25C U32G U38C	0.01
U20A G21U C23U	0.57
U20A G21U C31A G36A	0.02
U20A G21U G40C	0.03
U20A G22A G27A	1.69
U20A G22A G29U	0.29
U20A G22A G33U C37A	0.06
U20A G22A U32C G35A C45A	0.01
U20A G22A U38C G40A	0.2
U20A G22C A39U	0.36
U20A G22C G40U	0.09

Variant	self-cleavage
U20A G22U U32A	0.1
U20A G27C U28C U32C C45A	0.01
U20A G27U U28G	0.35
U20A G30A C45A	0.28
U20A G30A G33U C37U	0.02
U20A G30A G35A	0.1
U20A G30U C31U	0.05
U20A G30U C46A	0.23
U20A G30U C46G	0.12
U20A G35A C37G	0.01
U20A G35C C37U A39U	0.04
U20A G36A A39G	0.03
U20A U28A G40C	0.03
U20A U28A U38G	0.03
U20A U28C A39C	0.01
U20A U28C G33A	0.04
U20A U28C G36U	0.03
U20A U32C G44C	0.07
U20A U32G C37U	0
U20A U34C G36A A39G G40A	0.03
U20A U38A U43A	0
U20C A24U C37U G44C	0.05
U20C A25C G27A G36C	0.02
U20C A25C G29A C46G	0.31

Variant	self-cleavage
U20C A25C G30U	0.37
U20C A25U G27U U32C	0.02
U20C A25U G36U	0.03
U20C A25U G44A	0.15
U20C A25U U28G G30A	0.27
U20C A26C G29C	0.28
U20C C23A C37G	0.14
U20C C23A C37U	0.01
U20C C23A G29A	0.33
U20C C23A G36U	0.02
U20C C23G C37G U43C	0.03
U20C C31U A41C C45A	0.02
U20C C37U C46A	0.64
U20C C42U C46G	0.05
U20C G21A C31G	0.12
U20C G21C G22U	0.07
U20C G21U C31U	0.37
U20C G21U G36A	0
U20C G22A C23A A24G A39C	0.02
U20C G22A C46U	0.46
U20C G22A G27A C37U G40U	0.25
U20C G22C C23A U34C C37U	0
U20C G30A G35A	0.16
U20C G30U C31A G40U	0.02

Variant	self-cleavage
U20C G30U U32G	0.54
U20C G33C A41U	0.12
U20C G36A U38A A41G G44U	0.27
U20C G40A A41C C45U	0.06
U20C U28A G29A	0.29
U20C U28A U32G	0.09
U20C U28C G29C	0.05
U20C U28C G40A C42A	0.66
U20C U28C U32C G44A	0.02
U20C U28G G36C	0.04
U20C U38A G44A	0.16
U20C U43G C45A C46U	0.01
U20G A24C G35U	0.03
U20G A24C U38A G44C	0.08
U20G A24U G27C	0.3
U20G A24U U38C	0.23
U20G A25C C42U	0.08
U20G A25C G27C A41U C42U	0.05
U20G A25C G33U G40U	0.07
U20G A25U C37U G40C	0.03
U20G A25U U28C G35U	0.13
U20G A26C G27U G40U	0.01
U20G A26C U34G G40U	0.03
U20G A26U G29U U34C	0.06

Variant	self-cleavage
U20G A26U G40U U43G	0.03
U20G A41U C45A	0.33
U20G C23A C31U U43C	0
U20G C23A C37G	0.02
U20G C23U G29U G30A	0.3
U20G C31A G36U	0.11
U20G C31G G44U	0.02
U20G C37A G44U	0.04
U20G G21U C23U A41G	0.27
U20G G21U G33U C37G	0.02
U20G G21U G36A	0.03
U20G G22A C23A C37U	0.03
U20G G22C A26U G29U G40U	0.07
U20G G22U A26G C46A	0.3
U20G G22U G44U	0.14
U20G G27A C31A A39U	0.28
U20G G27U C31G G44U	0.02
U20G G27U G33A C42A G44A	0.06
U20G G29A U34G C42U	0.01
U20G G30A C42G	0.08
U20G G33U C37A	0.07
U20G G35C C45G	0.03
U20G G36U A41G	0.05
U20G G36U U38C	0.05

Variant	self-cleavage
U20G G40A C46A	0.02
U20G G44A C46U	0.03
U20G U28C A41G	0.08
U20G U32C G36A C42U C46A	0.02
U20G U32G C45U	0
U20G U34C G40U	0.07
U20G U34G A41U	0.07
G21A A24C G36A	0.13
G21A A24C U28A C42A	0.32
G21A A24G A41U	1.26
G21A A24G C46G	1.92
G21A A25C G33C	0.03
G21A A25U C46U	1.88
G21A A26C G27A G40C C45U	0.02
G21A A26U G33U	0.13
G21A A26U G44U	0.49
G21A A39C C46A	0.3
G21A A41C U43C G44U	0.06
G21A C23A C31G	0.12
G21A C23G G36U	0.05
G21A C23G G44U	0.13
G21A C23U C37G C45A	0.03
G21A C37G U38A	0.07
